The values below come from the RNAGym collection of RNA variant scans (doi:10.1093/nar/gkz1192).

Sequences and labels used below:
B1: CPEB3 Ribozyme (parent)
chain: UAACAGGGGGCCACAGCAGAAGCGUUCACGUCGCAGCCCCUGUCAGAUUCUGGUGAAUCUGCGAAUUCUGCUGUAUAUCUC

Read counts are not given, so values of variants with three or more changes are uncertain.

The variants in this data set derive from B1. The data set is described as follows: self-cleavage, relative activity (ratio to wild type); higher = more cleavage; in vitro, sequencing. The procedure, abridged:
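CPEB3 self-cleaving ribozyme mutant libraries were made by rounds of error-prone PCR, barcoded, and transcribed in vitro with T7 RNA polymerase for 5 hours at 37°C. Cleavage occurred during transcription and a 15 min DNase I step before EDTA stop. RNAs were reverse transcribed with template switching and Illumina-sequenced, with DNA sequencing mapping barcodes to variants. Relative activity is the variant's cleaved/total read fraction divided by wild type's (minimum 5 reads), averaged across three batches.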
G33A U41C C71G: the self-cleavage is 0.08.
G33A U41C U72C: the self-cleavage was found to be 0.08.
The figure for G33A G42C U43A G70A is 0.15; for G33A U60C U78C it is 0.13.
As for G33A U43C U54C, the self-cleavage came to 0.31.
For G33U U66G A75G, the self-cleavage came out at 0.04.
The figure for C34G U41C A56G U78C is 0.08; for G33U U41C U49C U66C it is 0.13.
For the variant C34A C38U U43C, the self-cleavage stood at 0.18.
With G33C U51A U78C, the self-cleavage came to 0.11.
The figure for G33A U43C U49C U67C U69A is 0.14; for G33A G42U U49C C59U it is 0.09; for G33U A35U U41G U48G U60A it is 0.16.
As to G33A C38U U49A A56U, the self-cleavage is 0.09.
For the variant G33A U74A A75G, the self-cleavage came to 0.17.
Then G33U U41C A47U U66C, with 0.14; and G33A U41A C68U, with 0.17.
With G33C A45G U78A, the self-cleavage was 0.11.
Turning to G33C G53U A64G, the self-cleavage is 0.18.
Take G33A U48C U51C C68A: the self-cleavage was determined as 0.09.
As to G33C U54A U76C, the self-cleavage came out at 0.11.
Take G33A C39U U43C A45U: the self-cleavage turned out to be 0.08.
Take C34G G52A U60C G70U A77G: the self-cleavage came to 0.11.
Take C34U A56G C62A: the self-cleavage was 0.1.
Then G33U A35U U66C U72C, with 0.16.
Then C34A C40U U54C, with 0.1.
The figure for G33A U43A U67C is 0.16; for G33U A45G U66C U72A it is 0.05; for G33A U41C U49C it is 0.1.
As for C34A A57G U58C U66C, the self-cleavage stood at 0.07.
For G33A U54A G63A A64G, the self-cleavage stood at 0.11.
Consider C34A A45U U48C U67A, for which the self-cleavage turned out to be 0.18.
With G33A G36A A47U A64U, the self-cleavage came out at 0.08.
On to C34G A35G U72G U80C, for which the self-cleavage turned out to be 0.64.
Take G33A C59U U69C: the self-cleavage worked out at 0.07.
For G33A C40U U69C, the self-cleavage came out at 0.19.
Consider C34A A35G C39A, for which the self-cleavage is 0.42.
Consider G33A G36U C40U U41C C44G U78C, for which the self-cleavage was 0.05.
Consider C34A A35U U48A U58A, for which the self-cleavage amounted to 0.1.
For G33A C44A A45G G52A U78A, the self-cleavage amounted to 0.17.
In the case of C34G A57G U60C U72A, the self-cleavage is 0.12.
Then C34G A45U C59A, with 0.1; and G33C U41A U49C A75C, with 0.07.
For G33C U41C U72C, the self-cleavage was found to be 0.14.
Take G33U U41C A45U: the self-cleavage is 0.06.
With G33A U49C U54C U60C U69A, the self-cleavage was determined as 0.15.
For G33C U41G C79U, the self-cleavage turned out to be 0.15.
As to G33U C68A U69A, the self-cleavage turned out to be 0.07.
Regarding G33A U51G A57G A64G U80C, the self-cleavage came out at 0.09.
As for G33C C38U U41C G55U, the self-cleavage was 0.13.
On to G33A G53U U58C U60C U69C, for which the self-cleavage came out at 0.07.
G33A U41C A47G U69C: the self-cleavage came out at 0.13.
In the case of C34G U48C U58C, the self-cleavage was 0.1.
For the variant G33A U41A U43C U67C, the self-cleavage is 0.08.
For the variant C34G U48C U54A, the self-cleavage came out at 0.12.
Then G33C U51G G63A U76C, with 0.11.
As for C34A U43C U48C A56U, the self-cleavage worked out at 0.17.
For the variant G33U A45C A56G U72C U78C, the self-cleavage came out at 0.18.
Consider G33A U41A G61U A65U U74C, for which the self-cleavage stood at 0.12.
Then G33U A35U U51G A65G U69A, with 0.13; and G33U U41A U51A U80A, with 0.17; and G33U C39U U74A, with 0.1.
On to G33U A45G U54A A65U U67C, for which the self-cleavage stood at 0.14.
For C34G U41C A56G, the self-cleavage worked out at 0.23.
Then C34G A45U A56G A64G U67C, with 0.08; and G33U A35U U72C, with 0.12; and G33C G46U U51A, with 0.11.
Regarding G33C C38A A45G U49C U80C, the self-cleavage was determined as 0.08.
For the variant C34A A47G A56G, the self-cleavage is 0.14.
Regarding C34G U41A U43A, the self-cleavage was 0.39.
In the case of G33A G61U A64U U72C, the self-cleavage came to 0.09.
For G33C U43C C62U U69A, the self-cleavage was 0.18.
Consider G33A U69A U72C, for which the self-cleavage was 0.18.
Consider C34G A47G A77C, for which the self-cleavage is 0.11.
As to G33A U41A A57G A75U, the self-cleavage is 0.07.
With C34G A57U C59U G63A, the self-cleavage was 0.07.
In the case of G33C A47U A64U, the self-cleavage came out at 0.12.
Regarding G33A G36U U78C, the self-cleavage came to 0.37.
Then G33C A65U C68U, with 0.1; and G33U U41C U49A U69C G70C, with 0.06.
The figure for C34A A35U U58A A64G is 0.16.
On to G33A C40U U43C A45G U60A, for which the self-cleavage came to 0.19.
As to G33C U43C U54C, the self-cleavage came out at 0.14.
On to G33A C38U A56U U80C, for which the self-cleavage is 0.09.
Then G33U G42U C71U U80C, with 0.12.
G33A U58A U60C: the self-cleavage turned out to be 0.17.
The figure for G33U C38U C59U is 0.37; for G33A U60A A77U it is 0.16; for G33A U54A U58C A77G it is 0.13.
Take G33C U51C U67C U69C: the self-cleavage came out at 0.07.
Turning to G33A U51C A64G, the self-cleavage was found to be 0.15.
Consider C34A A45G A75G, for which the self-cleavage came to 0.23.
With G33C A35G U54A U60C U66C, the self-cleavage is 0.13.
With C34U A35U U41A, the self-cleavage amounted to 0.21.
On to C34U A35G G55U U69C U76C, for which the self-cleavage is 0.13.
As for G33A C37G U54A U69A C79G C81G, the self-cleavage was found to be 0.
Then G33A U51G C62G, with 0.3.
In the case of C34A A35U U80C, the self-cleavage came to 0.33.
Consider G33U U49C U69A, for which the self-cleavage came out at 0.11.
Take G33U A45U A56G: the self-cleavage was determined as 0.15.
In the case of G33A U43C A64U U72A, the self-cleavage was found to be 0.09.
Turning to G33U A35U U41C, the self-cleavage is 0.21.
Then G33U A65G U72C, with 0.08; and G33U A35U U54A A57G, with 0.13.
As for C34A U43C U48C, the self-cleavage amounted to 0.08.
In the case of C34A C38U U66A, the self-cleavage was 0.32.
The figure for G33A U41C A57G is 0.26; for C34A U41C A45U U58A C62U it is 0.03; for G33U U72C U74A it is 0.11.
Take G33A U54C U69A: the self-cleavage was 0.34.
Take G33A C38U A57C U69C: the self-cleavage is 0.06.
Then G33U A35G U80C, with 0.34; and C34G A45U U51C U69C U72C, with 0.12; and C34G G53A U58A, with 0.11.
With G33A U54A U60C, the self-cleavage amounted to 0.13.
As for G33C A45G U51A U60C, the self-cleavage was determined as 0.1.
Regarding C34G U69C U74C, the self-cleavage came out at 0.2.
C34A A45G A56U G61C: the self-cleavage is 0.1.
Turning to G33U G52A U69G U78A, the self-cleavage worked out at 0.16.
G33A C38A U51C A64G U80A: the self-cleavage is 0.1.
In the case of C34G C68A A77G, the self-cleavage was found to be 0.07.
For G33U G53C U54G, the self-cleavage is 0.22.
G33A U41G C50U U51C U67A U72C: the self-cleavage worked out at 0.06.
G33C C39A U48C A57G U74C: the self-cleavage came out at 0.09.
With G33C U54C A56C U69A, the self-cleavage was determined as 0.12.
The figure for G33C C44A A64U is 0.13; for G33U U54A U60C it is 0.08; for G33A C62A A77U it is 0.21.
Consider G33A U41A A64U, for which the self-cleavage was determined as 0.12.
As to G33A U41A A64G, the self-cleavage worked out at 0.21.
The figure for G33C G53U U54C is 0.16.
G33A C37U U74A: the self-cleavage is 0.11.
Take G33A U43G A45G G46C: the self-cleavage turned out to be 0.3.
Regarding G33A U48C U54C U69A, the self-cleavage stood at 0.1.
For the variant C34G U48C U54A G73A, the self-cleavage amounted to 0.26.
Then G33A G55U A56U, with 0.1; and G33C C38U A56U A64G, with 0.11; and G33A G46U U69G U80C, with 0.07.
Take C34G A35G A47G: the self-cleavage was 0.38.
Regarding C34G A65G U74A, the self-cleavage stood at 0.08.
As for C34U A45U A57G, the self-cleavage amounted to 0.16.
Then C34G A47C U54C, with 0.14; and G33A G36A C44A, with 0.19; and G33C U60G U69C, with 0.09.
For C34G C40A A45U C59A, the self-cleavage amounted to 0.14.
In the case of G33U U43A A47G A56U, the self-cleavage was found to be 0.11.
Take C34U A35U C39A A64G: the self-cleavage was 0.1.
As for G33A C38A A45G A47G A56G, the self-cleavage stood at 0.42.
For C34U A47G A57U, the self-cleavage amounted to 0.15.
The figure for C34U A47G A57G is 0.16.
As to C34A A56G U78A U80C, the self-cleavage came out at 0.25.
Regarding G33C A45G U48C U49C, the self-cleavage came out at 0.08.
Turning to G33A U43C U54C U72C U80G, the self-cleavage was 0.05.
On to G33A U41A A57G U58C U72C U76A, for which the self-cleavage amounted to 0.1.
As to G33U A35G U60C U67C U80C, the self-cleavage is 0.09.
In the case of G33U A56G U72A, the self-cleavage was determined as 0.14.
Turning to C34G U49C U51C, the self-cleavage came to 0.16.
On to C34A U66C U76C, for which the self-cleavage was 0.22.
As for G33A U43A A45G U49C G53A, the self-cleavage is 0.07.
Consider G33C U49C U51C G53A U72C, for which the self-cleavage turned out to be 0.09.
In the case of G33C A57U U67C U74C U78C, the self-cleavage is 0.1.
As for G33U A35G A57G U60C U66C U67C U80C, the self-cleavage came out at 0.04.
Take G33A C38G U58C: the self-cleavage amounted to 0.4.
G33A U54C U66C: the self-cleavage amounted to 0.14.
Turning to G33C A35G C62U, the self-cleavage was 0.26.
Regarding G33A U43A U51A U66C, the self-cleavage was determined as 0.12.
Take G33A G63A A64G U67C: the self-cleavage worked out at 0.06.
